# Laboratory results published in the supplement of paper PMC12462457.
# Where a name gives a salt, the structure may show the parent alone. ± gives the standard deviation of the averaged measurements. The list shows a part of the results.
# Test system: OVCAR8
# Test: cell count relative to DMSO vehicle (fold change); OVCAR8 is a high-grade serous ovarian cancer line and CX-5461 an RNA polymerase I inhibitor; higher = more surviving senescent cells (less killing)
# Conditions: senescence inducer: CX-5461 3 µM 48 h, then 6 d recovery (CX senescent), exposure time 24 h
SMILES,cell count (compound dose 1 µM),cell count (compound dose 5 µM)
COC1=CC(=O)C[C@@H](C)[C@]12Oc1c(Cl)c(OC)cc(OC)c1C2=O [Griseofulvin],1.08 ± 0.016,1.06 ± 0.017
Cn1cc(-c2cnc(N)c3c(-c4ccc5c(c4)CCN5C(=O)Cc4ccccc4)csc23)cn1,1.1 ± 0.096,0.668 ± 0.037
CC(C)(C)c1cc(/C=C(\C#N)C(N)=S)cc(C(C)(C)C)c1O [Tyrphostin AG 879],1.19 ± 0.24,1.15 ± 0.27
COc1cccc(OCCCN)c1-c1cc(Nc2cnc(C#N)cn2)n[nH]1 [Prexasertib],0.614 ± 0.033,0.425 ± 0.016
Fc1ccc(-n2cc(CCCCN3CCC4(CC3)OCc3ccccc34)c3ccccc32)cc1 [Siramesine (hydrochloride)],1.13 ± 0.21,1.42 ± 0.29
CC(=O)Nc1ccc(C2=NNC(=O)C[C@H]2C)cc1,0.99 ± 0.21,1.13 ± 0.3
N=C1S/C(=C\c2ccc(-c3ccc4c(c3)C(=O)NC4=O)o2)C(=O)N1c1ccc(Br)cc1 [Bioymifi],1.01 ± 0.14,1.01 ± 0.14
COc1ccc(COc2cc3oc(=O)c4cc(C(C)O)ccc4c3cc2OC)cc1 (stereo unspecified) [Palomid 529 (P529)],1.19 ± 0.034,1.06 ± 0.045
CC(C)(C)NC(=O)[C@@H]1CN(Cc2cccnc2)CCN1C[C@@H](O)C[C@@H](Cc1ccccc1)C(=O)N[C@H]1c2ccccc2C[C@H]1O [Indinavir (sulfate)],1.19 ± 0.11,1.05 ± 0.22
COC(=O)Nc1nc2cc(C(=O)c3ccc(F)cc3)ccc2[nH]1 [Flubendazole],1.15 ± 0.067,1.01 ± 0.049
CC[C@@H]1C(=O)N(C)c2cnc(Nc3ccc(C(=O)NC4CCN(C)CC4)cc3OC)nc2N1C1CCCC1,1.18 ± 0.082,1.15 ± 0.14
CCCCC[C@H](O)CC(=O)CCc1ccc(O)c(OC)c1 [[6]-Gingerol],1.14 ± 0.3,1.026 ± 0.0035
Fc1ccc(CNc2ncnc3ccc(F)cc23)cc1 [Spautin-1],1.04 ± 0.18,0.947 ± 0.23
CCCCCCCC/C=C\CCCCCCCC(=O)O [Oleic acid],0.997 ± 0.27,1.14 ± 0.35
CN1CCC(CNc2ccc3ncc(-c4cccc(OC(F)(F)F)c4)n3n2)CC1 [SGI-1776 free base],1.17 ± 0.084,1.12 ± 0.14
COc1cc2c(cc1OC)[C@@H]1Cc3ccc(OC)c(OC)c3CN1CC2,1.17 ± 0.2,1.11 ± 0.088
O=C(O)C[C@H](O)C[C@H](O)/C=C/c1c(C2CC2)nc2ccccc2c1-c1ccc(F)cc1 [Pitavastatin (Calcium)],0.905 ± 0.21,0.717 ± 0.14
C[C@@H]1O[C@@H](OC[C@H]2O[C@@H](Oc3cc(O)c4c(c3)O[C@H](c3ccc(O)c(O)c3)CC4=O)[C@H](O)[C@@H](O)[C@@H]2O)[C@H](O)[C@H](O)[C@H]1O [Eriocitrin],1.06 ± 0.19,1.05 ± 0.065
